Screen size: about 360,000 compounds; about 16,000 (4.4%) were called active. The inconclusive results got no clear call from the source; some entries with a clear call stand among them for comparison. Calls follow the shape of the dose curve; as a rule, active = well fitted inhibition curve with a large enough effect; inconclusive = small, poorly fitted or top-dose-only effect; inactive = no such curve, though single readings can be large or run the other way. A potency beside an inconclusive call is a rough fit, not a confirmed value.
biological target: Bromodomain adjacent to zinc finger domain protein 2B (Homo sapiens) (UniProt Q9UIF8); test: qHTS Assay for Inhibitors of BAZ2B; settings: AlphaScreen BAZ2B-H3K14Ac peptide displacement; activity change, negative = inhibition: at 114 µM (top of the series) unless noted; also: nearly all actives have a fitted effect of over 60% in size
Summary of the method: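 BAZ2B 50 nM plus b-H3(5-23)K14Ac 50 nM, PBS pH 7.4/0.01% Tween-20, 30 min RT; compound added (max 110 uM), 30 min RT; streptavidin donor/Ni-chelate acceptor beads 10 ug/mL final, 20 min dark; AlphaScreen read.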
% is scaled to controls: 0 for no effect and ±100 for the full control effect; potency is read from the fitted curve at half-maximal effect; tags tell the direction and shape of the fitted curve.

Sequence of UniProt Q9UIF8 (Q9UIF8 whole entry, looked up, the tested form may be a part): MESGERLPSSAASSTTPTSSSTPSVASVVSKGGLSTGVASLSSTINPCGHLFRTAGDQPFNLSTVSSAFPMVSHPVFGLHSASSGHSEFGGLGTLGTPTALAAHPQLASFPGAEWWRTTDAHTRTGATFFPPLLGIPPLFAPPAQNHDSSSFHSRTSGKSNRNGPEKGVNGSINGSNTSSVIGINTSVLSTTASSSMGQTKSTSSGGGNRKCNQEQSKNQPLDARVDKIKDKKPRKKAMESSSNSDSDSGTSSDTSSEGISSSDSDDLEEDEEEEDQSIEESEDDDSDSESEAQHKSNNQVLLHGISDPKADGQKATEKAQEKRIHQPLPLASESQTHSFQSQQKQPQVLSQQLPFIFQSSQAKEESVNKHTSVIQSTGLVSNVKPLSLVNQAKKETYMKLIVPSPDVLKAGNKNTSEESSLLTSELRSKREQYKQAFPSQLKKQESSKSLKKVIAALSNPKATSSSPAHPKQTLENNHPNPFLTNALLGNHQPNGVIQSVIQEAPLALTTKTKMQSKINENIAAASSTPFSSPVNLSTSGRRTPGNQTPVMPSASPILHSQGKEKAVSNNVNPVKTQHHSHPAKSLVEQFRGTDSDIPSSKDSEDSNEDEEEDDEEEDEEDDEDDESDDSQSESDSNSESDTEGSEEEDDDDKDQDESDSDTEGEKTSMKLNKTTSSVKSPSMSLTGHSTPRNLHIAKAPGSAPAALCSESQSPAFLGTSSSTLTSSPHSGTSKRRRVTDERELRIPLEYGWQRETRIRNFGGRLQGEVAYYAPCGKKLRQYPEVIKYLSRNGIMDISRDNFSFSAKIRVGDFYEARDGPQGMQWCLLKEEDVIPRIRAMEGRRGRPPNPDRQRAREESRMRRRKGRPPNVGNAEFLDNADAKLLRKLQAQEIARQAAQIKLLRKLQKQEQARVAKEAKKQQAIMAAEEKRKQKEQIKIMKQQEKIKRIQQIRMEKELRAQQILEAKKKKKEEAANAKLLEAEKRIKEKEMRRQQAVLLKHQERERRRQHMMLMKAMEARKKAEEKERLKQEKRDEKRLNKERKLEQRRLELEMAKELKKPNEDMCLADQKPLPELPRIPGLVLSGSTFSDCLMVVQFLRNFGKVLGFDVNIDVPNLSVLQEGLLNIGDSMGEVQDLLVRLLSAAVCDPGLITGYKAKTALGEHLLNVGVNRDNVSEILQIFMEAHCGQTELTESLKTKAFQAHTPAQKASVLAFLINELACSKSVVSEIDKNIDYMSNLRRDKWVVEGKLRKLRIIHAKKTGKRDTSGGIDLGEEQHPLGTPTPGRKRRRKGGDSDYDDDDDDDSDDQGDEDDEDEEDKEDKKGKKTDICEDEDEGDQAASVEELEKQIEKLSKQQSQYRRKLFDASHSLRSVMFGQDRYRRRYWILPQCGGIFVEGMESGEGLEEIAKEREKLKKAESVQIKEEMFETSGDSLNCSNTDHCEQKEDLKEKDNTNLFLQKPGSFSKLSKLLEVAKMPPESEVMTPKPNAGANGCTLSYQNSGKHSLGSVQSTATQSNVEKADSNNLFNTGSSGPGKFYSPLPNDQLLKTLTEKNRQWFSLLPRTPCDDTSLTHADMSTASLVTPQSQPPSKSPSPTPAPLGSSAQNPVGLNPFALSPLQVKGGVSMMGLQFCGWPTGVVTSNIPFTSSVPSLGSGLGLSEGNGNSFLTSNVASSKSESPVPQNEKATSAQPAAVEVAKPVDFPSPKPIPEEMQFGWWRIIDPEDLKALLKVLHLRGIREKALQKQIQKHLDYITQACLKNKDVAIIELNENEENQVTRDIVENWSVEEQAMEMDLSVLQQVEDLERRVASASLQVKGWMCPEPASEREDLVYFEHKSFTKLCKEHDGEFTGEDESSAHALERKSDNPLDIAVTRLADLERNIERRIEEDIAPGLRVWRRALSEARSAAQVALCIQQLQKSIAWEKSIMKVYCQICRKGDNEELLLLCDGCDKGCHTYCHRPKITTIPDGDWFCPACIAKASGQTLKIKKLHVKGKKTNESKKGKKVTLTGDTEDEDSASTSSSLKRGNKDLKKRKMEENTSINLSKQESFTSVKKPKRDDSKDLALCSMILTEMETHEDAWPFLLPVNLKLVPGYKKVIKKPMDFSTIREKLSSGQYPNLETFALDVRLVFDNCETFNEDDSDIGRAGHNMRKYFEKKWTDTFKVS

Compound	Potency	activity change, negative = inhibition
O=C(NC(=O)c1ccc(F)cc1)Nc1ccc(-c2cc(C(F)(F)F)nn2-c2ccccc2)cc1	inconclusive: 39.8 µM [inhibitor, single point]	
c1ccc(COc2ccc(OCCCN3CCCCC3)cc2)cc1	inconclusive: 39.8 µM [inhibitor, single point]	
Cn1c(-c2ccccc2)cnc1NCc1ccc(F)cc1	inconclusive: 79.4 µM [inhibitor, single point]	
Nc1ccc(-c2cc(N)n(-c3ccccc3)n2)cc1		inconclusive: -77.7% [inhibitor]
Cc1cc2ccccn2c1C(=O)c1cccc([N+](=O)[O-])c1	inconclusive: 39.8 µM [inhibitor, partial curve]	
S=C(Nc1ccc(Br)cc1)Nc1ccc2c(c1)OCCO2	inconclusive: 2.82 µM [inhibitor, full curve, poor fit]	
C/C(=N\NC(=O)CNc1ccc(F)cc1)c1cc2ccccc2o1	inconclusive: 79.4 µM [inhibitor, single point]	
CC(C)n1cnnc1SCC(=O)Nc1ccc(Br)cc1F		inactive: -13.9%
CCCn1c(SCC(=O)Nc2nnc(-c3ccccc3)s2)nnc1-c1ccccn1	inconclusive: 50.1 µM [inhibitor, partial curve]	
CC1CCC2(CC1)NC(=O)N(CC(=O)Nc1sc3c(c1C(N)=O)CCC3)C2=O (stereo not given)	active: 50.1 µM	
c1ccc(NCc2ccccn2)cc1	active: 79.4 µM	
CCN(CC)S(=O)(=O)c1ccc(NC(=O)CSc2nnc(-c3cccc(OC)c3)n2C)cc1		inactive: 9.61%
COc1cccc(C(=O)Nc2ccc(N3CCCC3)cc2)c1	active: 31.6 µM	
CC(C)Nc1nnc(SCC(=O)/C=C2\N(C)c3ccccc3C2(C)C)s1	inconclusive: 79.4 µM [inhibitor, single point]	
CC(NS(=O)(=O)c1ccc(Cl)cc1)C(=O)OCC(=O)Nc1ccc(N(C)C)cc1 (stereo not given)	inconclusive: 44.7 µM [inhibitor, partial curve]	
Cc1csc2nc(-c3cccc(NC(=O)C(C)C)c3)cn12		inactive: -9.88%
O=C(/C=C/c1ccc(S(=O)(=O)N2CCOCC2)cc1)OCC(=O)c1ccc([N+](=O)[O-])cc1	inconclusive: 100 µM [inhibitor, partial curve]	
CN(C)/C=C/C(=O)/C=C/c1ccc(Cl)cc1Cl	inconclusive: 79.4 µM [inhibitor, single point]	
Cc1cccc(NS(=O)(=O)c2ccc(C(=O)NCC(c3ccco3)N(C)C)cc2)c1C (stereo not given)	inconclusive: 79.4 µM [inhibitor, single point]	
CCc1ccccc1NC(=O)c1ccc2c(c1)N(Cc1cccc(Cl)c1)C(=O)c1ccccc1S2(=O)=O		inactive: 1.44%
CCOC(=O)Nc1ccc(NCc2ccc(F)cc2)nc1N	active: 70.8 µM	
Cc1cccc(C(=O)N/C(=C\c2ccco2)C(=O)N2CCCC2)c1		inactive: -8.16% [at 57.1 µM]
CCN(CC)S(=O)(=O)c1ccc2nc(CCl)[nH]c2c1		inactive: -18.6%
COc1ccc(C2CC(=O)Nc3c2c(C)nn3-c2nncc(-c3ccc(C)cc3)n2)c(OC)c1OC (stereo not given)	inconclusive: 89.1 µM [inhibitor, single point]	
O=S(=O)(/C=C/c1ccccc1)N1CCOCC1		inactive: -1.78%

Compound	Potency	activity change, negative = inhibition
Cc1cccc(CCNC(=O)c2sc3nc4n(c(=O)c3c2C)CCCC4)c1		inactive: -0.598%
COc1cc(CN2CCN(c3cccc(C)c3C)CC2)cc(Br)c1O	inconclusive: 89.1 µM [inhibitor, single point]	
CSc1cccc(CN2CCCC(CO)(Cc3cccc(Cl)c3)C2)c1 (stereo not given)	inconclusive: 79.4 µM [inhibitor, single point]	
Cc1noc(C)c1COC(=O)CCOc1ccccc1		inactive: 26.4%
C[C@H]1O[C@H]1P(=O)(O)O	inactive	
Cc1nc2cccnc2n1-c1cccc(C(=O)N2CCN(c3ccc(Cl)cc3)CC2)c1	inconclusive: 89.1 µM [inhibitor, single point]	
CCOC(=O)c1c(C)nc2c3ccccc3ccn12		inactive: 6.78%
CCCc1c(C(=O)NNc2ccccc2OC)cnn1-c1ccccc1	inconclusive: 44.7 µM [inhibitor, partial curve]	
Cc1cc(C2=NNC(=NC3CCCCC3)SC2)c(C)n1-c1c(C)n(C)n(-c2ccccc2)c1=O	inconclusive: 79.4 µM [inhibitor, partial curve]	
Cc1ccc(C2(c3ccccc3)NC(=O)N(CC(=O)NC3CCCCC3)C2=O)cc1C (stereo not given)		inactive: -3.13%
COc1ccc(S(=O)(=O)N2CCc3ccccc32)cc1C(=O)NCc1ccco1		inactive: -27.9%
COc1ccc(CCNC(=O)CN2C(=O)NC(CCSC)C2=O)cc1 (stereo not given)		inactive: -10.7%
CC[n+]1c(/C=C/c2ccc(N(C)C)cc2)ccc2ccccc21	active: 39.8 µM	
Cc1ccc(S(=O)(=O)NCc2n[nH]c(=S)n2C)cc1		inactive: 5.59%
COc1ccc(-n2ccnc2SCC(=O)Nc2ccc(F)cc2F)cc1	inconclusive: 28.2 µM [inhibitor, partial curve]	
CCSc1nnc2n(-c3cccc(C)c3)c(=O)c3c4c(sc3n12)CCCC4		inactive: -2.07%
CCOc1ccccc1N1CCN(Cc2cc3c(cc2[N+](=O)[O-])OCO3)CC1	inconclusive: 39.8 µM [inhibitor, full curve]	
COc1ccc(C)c2sc(N(CCN(C)C)C(=O)c3ccc4ccccc4c3)nc12	inconclusive: 22.4 µM [inhibitor, partial curve]	
Cc1ccc(S(=O)(=O)c2nc(-c3ccccc3)oc2NCc2cccnc2)cc1	inconclusive: 89.1 µM [inhibitor, single point]	
COc1ccc(OC)c(NC(=O)C2CCCN(S(=O)(=O)c3cccc4nsnc34)C2)c1 (stereo not given)	inconclusive: 89.1 µM [inhibitor, single point]	
O=C1CSC2(C(=O)N(Cc3ccccc3F)c3ccccc32)N1c1ccc(F)cc1 (stereo not given)	inconclusive: 89.1 µM [inhibitor, single point]	
c1ccc2c(c1)OCCOCCOCCOCCOCCOc1ccccc1OCCOCCOCCO2		inactive: -1.38%
O=S(=O)(Nc1ccc2nc(-c3ccc(Br)o3)[nH]c2c1)c1ccccc1	inconclusive: 79.4 µM [inhibitor, single point]	
c1ccc(-n2c(Cc3cn4ccsc4n3)nnc2N2CCOCC2)cc1	inconclusive: 89.1 µM [inhibitor, single point]	
Cc1ccc(S(=O)(=O)Nc2ccc(-c3nc4cc(NS(=O)(=O)c5ccc(C)cc5)ccc4o3)cc2)cc1	inconclusive: 39.8 µM [inhibitor, single point]	

Compound	Potency	activity change, negative = inhibition
Cc1cc2nn(-c3ccc(Cl)cc3)nc2cc1N	inconclusive: 89.1 µM [inhibitor, single point]	
O=C1CCN(C(=O)CSc2ccc(Cl)cc2)N1	active: 50.1 µM	
Brc1ccc2ncnc(NCc3ccco3)c2c1		inactive: -38.7%
O=C(N/N=C/c1c[nH]c2ccccc12)C1CC1c1ccccc1 (stereo not given)		inactive: -27.1%
Cn1c(SCC(=O)NC2CCCCC2)nnc1-c1ccccn1	active: 79.4 µM	
Cc1cccnc1NCc1ccc(O)c2ncccc12	active: 12.6 µM	
CCOC(=O)C1(CCc2ccccc2)CCN(C(=O)Cc2nonc2C)CC1		inactive: -10.5%
N#CC(c1nc2ccccc2nc1N1CCCCC1)S(=O)(=O)c1ccc(Cl)cc1 (stereo not given)	inconclusive: 50.1 µM [inhibitor, partial curve]	
Cc1cccc(/C=C2\CS/C(=C\c3cccc(C)c3)C2=O)c1	active: 50.1 µM	
CCc1ccc(NC(=O)c2sc(-n3nc(C)c(Cc4ccc(OC)cc4)c3C)nc2C)cc1	inconclusive: 100 µM [inhibitor, single point]	
COc1ccc(NC(=O)c2ccc(-c3ccccc3)cc2)cc1NS(=O)(=O)c1ccc(F)cc1		inactive: -7.47%
Cc1ccc(CNC(=O)Cn2ccc3cc(S(=O)(=O)N4CCCCCC4)ccc32)cc1		inactive: -2.23%
COC(=O)c1ccc(OC(=O)CCc2cc(OC)c(OC)c(OC)c2)cc1		inactive: 2.27%
CCOC(=O)c1c(NC(=O)Nc2cccc(Cl)c2)sc(C)c1C	inconclusive: 89.1 µM [inhibitor, single point]	
CCOc1ccccc1NC(=O)c1nn(-c2ccc(C)cc2)c(=O)n(C)c1=O		inactive: -5.88%
S=C1NC(c2ccccc2)=CC(c2ccccc2)N1 (stereo not given)	inconclusive: 70.8 µM [inhibitor, single point]	
O=C(O)c1nccnc1C(=O)Nc1ccc(Oc2c(Cl)cccc2Cl)nc1	inconclusive: 89.1 µM [inhibitor, single point]	
CC(=O)c1cccc(NC(=O)C(C)OC(=O)c2cc(C)oc2C)c1 (stereo not given)	inconclusive: 89.1 µM [inhibitor, single point]	
CC1CC/C(=C\c2ccc3c(c2)OCO3)C(=O)/C1=C/c1ccc2c(c1)OCO2 (stereo not given)	inconclusive: 39.8 µM [inhibitor, partial curve]	
CN1C(=O)/C(=C/c2ccc(OCc3ccc(C(=O)O)cc3)c(Cl)c2)NC1=S	inconclusive: 79.4 µM [inhibitor, single point]	
CCOc1ccc(N2C(=O)CC(N(Cc3ccco3)C(=O)CC)C2=O)cc1 (stereo not given)		inactive: -6.41%
CCOC(=O)c1cccc(NC(=O)[C@@H](c2ccccc2)N2Cc3ccccc3C2=O)c1	inconclusive: 25.1 µM [inhibitor, full curve]	
C=CCN1C(=O)/C(=C/c2ccc(OCC(=O)O)cc2)S/C1=N/c1nccs1	inconclusive: 89.1 µM [inhibitor, single point]	
O=C(Cn1c(C(=O)NCc2ccco2)cc2sccc21)c1ccccc1	inconclusive: 44.7 µM [inhibitor, partial curve]	
O=C(NNC(=O)c1ccc(Br)o1)c1ccc(NC(=O)c2ccccc2)cc1	inconclusive: 79.4 µM [inhibitor, partial curve]	

From PubChem BioAssay AID504333 (National Center for Advancing Translational Sciences (NCATS), 2011)
